# Laboratory results from PubChem BioAssay AID504706 (National Center for Advancing Translational Sciences (NCATS), 2011).
# The campaign covered roughly 320,000 compounds. About 200 (0.062%) were called active. Inconclusive means that the source gave no clear call. Such entries were picked first, then a sample of the others. The call rests on the fitted dose curve; in most records, active means well fitted activation curve with a large enough effect; inconclusive means small, poorly fitted or top-dose-only effect; inactive means no such curve, though single readings can be large or run the other way. Potencies of inconclusive entries are left out as doubtful fits.
# Assay: qHTS assay for re-activators of p53 using a Luc reporter; further: nearly all actives have a fitted effect of over 45% in size
# Settings: H1299 p53-A138V BP100-luciferase reporter, luminescence, 24 h; series mostly up to 92.2 µM
# Outline: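 H1299 (p53-null), stable ts p53-A138V + BP100-Luc; 1000 cells/well, Opti-MEM/10% FBS; cpd 4 pt, 1:5; 24 h, 37 deg C, 5% CO2; detection reagent 10 min RT; luminescence.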
# Potency means the concentration at half of the fitted maximal effect; tags describe the fitted curve by direction and shape.
row,SMILES,Potency
1,CS(=O)(=O)Nc1ccc(C2=NN(S(C)(=O)=O)C(c3ccc4c(c3)OCO4)C2)cc1 (centres undefined),"inconclusive [activator, partial curve, poor fit]"
2,CCNC(=O)NC(=O)C(C)Oc1ccc(Br)cc1Br (centres undefined),inactive
3,COc1ccc(N/C(N)=N/c2nc(C)cc(=O)[nH]2)cc1,inactive
4,Cc1[nH]c2ccc(-c3nnc(SCC(=O)c4ccccc4F)o3)cc2c1C,"inconclusive [activator, single point]"
5,COc1ccc(/C=C/C(=O)c2ccc[nH]2)cc1OC,"inconclusive [activator, full curve, poor fit]"
6,CN1CCN(C(=O)c2ccc3c(c2)OCCO3)CC1,"inconclusive [activator, single point]"
7,Cn1c(=O)n(C)c2cc(NS(=O)(=O)c3ccccc3)ccc21,"inconclusive [activator, partial curve, poor fit]"
8,COc1ccc(NC(=S)Nc2ncccc2C)c(OC)c1,inactive
9,O=C(NN=Cc1ccc(N2CCOCC2)s1)c1ccc([N+](=O)[O-])cc1,inactive
10,CCCOc1ccc(-c2cn3ccccc3n2)cc1[N+](=O)[O-],"inconclusive [activator, partial curve, poor fit]"
11,CCCc1cc(C(=O)NCCc2ccccc2)no1,"inconclusive [activator, partial curve, poor fit]"
12,CC/C(=N/Nc1cccc(Cl)c1)c1cnnc(SC)n1,inactive
13,CCCCOC(=O)CSCC(=O)N1N=C(c2cccs2)CC1c1ccc(F)cc1 (centres undefined),inactive
14,COc1cccc(NC(=O)C(=O)N/N=C(\C)CC(=O)Nc2ccc(NC(C)=O)cc2)c1,"inconclusive [activator, single point]"
15,Cc1c(C)n(-c2ccccc2)c2ncnc(NCCN(C)C)c12,"inconclusive [activator, partial curve, poor fit]"
16,CCCCOc1ccc(C(=O)Nc2cccc(C)n2)cc1,"inconclusive [activator, partial curve, poor fit]"
17,COc1ccc(OCCn2cc(C=O)c3ccccc32)cc1,"inconclusive [activator, single point]"
18,Cc1c(C(=O)N2CCOCC2)sc(NC(=O)Cc2ccccc2)c1C#N,"inconclusive [activator, single point]"
19,Cc1ccc(C(=O)COC(=O)c2n[nH]c(=O)c3ccccc23)cc1,inactive
20,Cc1ccc(NC(=O)CN2C(=O)N/C(=C/c3ccc(C)s3)C2=O)cc1,"inconclusive [activator, single point]"
21,CCOC(=O)N1CCN(C(=O)Nc2ccc3oc(C)nc3c2)CC1,inactive
22,O=C(Oc1c(Cl)cc(Cl)c2cccnc12)c1cccs1,"inconclusive [activator, single point]"
23,CC(C)(C)CNC(=O)c1ccc2c(c1)S(=O)(=O)c1cc(Cl)ccc1C2=O,"inconclusive [activator, partial curve, poor fit]"

row,SMILES,Potency
1,COCCn1c(C)cc(/C=C2\NC(=S)N(C)C2=O)c1C,"inconclusive [activator, single point]"
2,CCN1C(=O)c2ccc(C(=O)Nc3ccc4c(c3)OCO4)cc2C1=O,inactive
3,O=C1CC2(CCCC2)C(=O)N1c1ccc(S(=O)(=O)NCC2CC2)cc1Cl,inactive
4,CCN(CC)CCCNC(=O)c1sc2ncn(CC(=O)Nc3ccc(C)c(Cl)c3)c(=O)c2c1C,"inconclusive [activator, partial curve, poor fit]"
5,CC(C)(C)C1(C)OC(=O)C(=Cc2ccc(OCC(=O)Nc3ccccc3)cc2)C(=O)O1 (centres undefined),"inconclusive [activator, partial curve, poor fit]"
6,COC(=O)C1=C(C)NC(=S)NC1c1ccc(-c2cc(Cl)ccc2Cl)o1 (centres undefined),inactive
7,Cc1ccc(OCCCN2CCOCC2)c([N+](=O)[O-])c1,"inconclusive [activator, partial curve, poor fit]"
8,CCN1CCN(c2oc(COc3ccc(-c4ccccc4)cc3)nc2C#N)CC1,"inconclusive [activator, single point]"
9,COc1cc(/C=C2/C(=N)N3C(SC)=NSC3=NC2=O)ccc1OC(=O)c1ccco1,"inconclusive [activator, full curve, poor fit]"
10,CCc1ccc(NC(=O)C2C3CCC(O3)C2C(=O)O)cc1 (centres undefined),"inconclusive [activator, partial curve, poor fit]"
11,CN(Cc1nc(-c2ccccn2)no1)S(=O)(=O)c1ccccc1,"inconclusive [activator, full curve, poor fit]"
12,CCCc1[nH]c(=O)c(C#N)c2c1COC(C)(C)C2,inactive
13,O=C(O)c1cc(NC(=O)C2CCCO2)cc(NC(=O)C2CCCO2)c1 (centres undefined),inactive
14,C(=N/N1CCN(c2ccccc2)CC1)/c1cccs1,"inconclusive [activator, partial curve, poor fit]"
15,Cc1ccc(C)c(Nc2nc3ccccc3n3cnnc23)c1,inactive
16,COc1ccccc1/C=C1\SC(=S)N(NS(=O)(=O)c2ccccc2)C1=O,inactive
17,CCc1ccc2nc(N(CCN(C)C)C(=O)c3ccc4ncsc4c3)sc2c1,"inconclusive [activator, partial curve, poor fit]"
18,COc1ccc(-c2cc3cc(OC)c(OC)cc3cn2)cc1,inactive
19,O=C(NCC1CCCCC1)c1cccnc1,"inconclusive [activator, single point]"
20,CCSc1nnc(NC(=O)[C@@H](NC(=O)c2ccc(C(C)(C)C)cc2)C(C)C)s1,"inconclusive [activator, single point]"
21,O=C(CC(=O)c1ccccc1)Nc1cccnc1Cl,"inconclusive [activator, partial curve, poor fit]"
22,COc1cccc(CN2CC(C(=O)N3CCOCC3)CCC2=O)c1 (centres undefined),"inconclusive [activator, partial curve, poor fit]"
23,CC1CCCCC1NC(=O)NC(=O)CCl (centres undefined),inactive

row,SMILES,Potency
1,COc1ccccc1CNC(=O)c1cccc(C)c1[N+](=O)[O-],"inconclusive [activator, partial curve, poor fit]"
2,COc1ccc(C(=O)N/N=C(\Cc2ncc[nH]2)c2ccccc2)cc1,"inconclusive [activator, partial curve, poor fit]"
3,O=C(Nc1ccc2c(c1)OCCO2)C1CC1c1ccccc1 (centres undefined),"inconclusive [activator, partial curve, poor fit]"
4,Cc1cc(C)cc(NC(=S)N2CC(C)OC(C)C2)c1 (centres undefined),inactive
5,Cc1cc(C(=O)N/N=C/c2c[nH]c3ccccc23)cs1,"inconclusive [activator, partial curve, poor fit]"
6,O=C(CCNC(=O)c1ccc(Br)cc1)Nc1nccs1,inactive
7,Cc1ccc(NC(=O)c2cnccn2)cc1S(=O)(=O)N1CCCCCC1,inactive
8,COC(=O)c1[nH]c2ccc(C)cc2c1NC(=O)Nc1ccc(OC)cc1,"inconclusive [activator, single point]"
9,COc1ccc(/C(C)=N/NC(=S)NCc2ccco2)cc1,"inconclusive [activator, single point]"
10,C=C(C)CSc1cc(C)nc2c(-c3ccccc3)c(C)nn12,inactive
11,Cc1ccccc1N=Nc1c(C)[nH]n(C(N)=S)c1=O,"inconclusive [activator, partial curve, poor fit]"
12,CCOc1cc2nc(-c3ccc(OC)c(OC)c3)nc(NCCCN3CCOCC3)c2cc1OC,inactive
13,CCOC(=O)CCC(NC(=O)CCCC(=O)NC(CCC(=O)OCC)C(=O)OCC)C(=O)OCC (centres undefined),"inconclusive [activator, single point]"
14,CNC(=S)Nc1ccc(C23CC4CC(CC(C4)C2)C3)cc1,"inconclusive [activator, partial curve, poor fit]"
15,CC1N(C)c2cc(NC(=O)c3ccco3)ccc2C1(C)C (centres undefined),"inconclusive [activator, partial curve, poor fit]"
16,Cc1ccc(C2(C(F)(F)F)N=C3Sc4cc(C)ccc4N3C(=O)N2)cc1 (centres undefined),"inconclusive [activator, single point]"
17,COc1ccc(Cn2c(C3CC3)nc3ccc(NC(=O)c4ccco4)cc3c2=O)cc1,"inconclusive [activator, partial curve, poor fit]"
18,O=C(Nc1ccc2c(c1)OCO2)c1ccncc1,"inconclusive [activator, partial curve, poor fit]"
19,CCN(CC)c1ccc(N=Nc2nn(C)c(C)c2[N+](=O)[O-])cc1,"inconclusive [activator, full curve, poor fit]"
20,O=C(NCCCN1CCCC1=O)Nc1ccccc1F,"inconclusive [activator, single point]"
21,C=CCn1cccc(C(=O)Nc2ccc(F)cc2)c1=O,"inconclusive [activator, full curve, poor fit]"
22,Cn1cccc1C(=O)NCCc1ccccc1,"inconclusive [activator, full curve, poor fit]"
23,CSc1nc(O)c(/C=C2\C=Nc3ccccc32)[nH]1,"inconclusive [activator, partial curve, poor fit]"
